# In PubChem BioAssay AID504339 (National Center for Advancing Translational Sciences (NCATS), 2011):
# Screen size: about 390,000 compounds; about 17,000 (4.4%) were called active. The shares of active, inactive and inconclusive entries below differ from those in the screen. Calls come from the whole dose curve; as a rule, active = well fitted inhibition curve with a large enough effect; inconclusive = small, poorly fitted or top-dose-only effect; inactive = no such curve, though single readings can be large or run the other way. Where the call is inconclusive, the potency comes from a doubtful curve fit.
# Biological target: Lysine-specific demethylase 4A (Homo sapiens) (UniProt O75164)
# UniProt O75164, sequence (O75164 whole entry, looked up, the tested form may be a part): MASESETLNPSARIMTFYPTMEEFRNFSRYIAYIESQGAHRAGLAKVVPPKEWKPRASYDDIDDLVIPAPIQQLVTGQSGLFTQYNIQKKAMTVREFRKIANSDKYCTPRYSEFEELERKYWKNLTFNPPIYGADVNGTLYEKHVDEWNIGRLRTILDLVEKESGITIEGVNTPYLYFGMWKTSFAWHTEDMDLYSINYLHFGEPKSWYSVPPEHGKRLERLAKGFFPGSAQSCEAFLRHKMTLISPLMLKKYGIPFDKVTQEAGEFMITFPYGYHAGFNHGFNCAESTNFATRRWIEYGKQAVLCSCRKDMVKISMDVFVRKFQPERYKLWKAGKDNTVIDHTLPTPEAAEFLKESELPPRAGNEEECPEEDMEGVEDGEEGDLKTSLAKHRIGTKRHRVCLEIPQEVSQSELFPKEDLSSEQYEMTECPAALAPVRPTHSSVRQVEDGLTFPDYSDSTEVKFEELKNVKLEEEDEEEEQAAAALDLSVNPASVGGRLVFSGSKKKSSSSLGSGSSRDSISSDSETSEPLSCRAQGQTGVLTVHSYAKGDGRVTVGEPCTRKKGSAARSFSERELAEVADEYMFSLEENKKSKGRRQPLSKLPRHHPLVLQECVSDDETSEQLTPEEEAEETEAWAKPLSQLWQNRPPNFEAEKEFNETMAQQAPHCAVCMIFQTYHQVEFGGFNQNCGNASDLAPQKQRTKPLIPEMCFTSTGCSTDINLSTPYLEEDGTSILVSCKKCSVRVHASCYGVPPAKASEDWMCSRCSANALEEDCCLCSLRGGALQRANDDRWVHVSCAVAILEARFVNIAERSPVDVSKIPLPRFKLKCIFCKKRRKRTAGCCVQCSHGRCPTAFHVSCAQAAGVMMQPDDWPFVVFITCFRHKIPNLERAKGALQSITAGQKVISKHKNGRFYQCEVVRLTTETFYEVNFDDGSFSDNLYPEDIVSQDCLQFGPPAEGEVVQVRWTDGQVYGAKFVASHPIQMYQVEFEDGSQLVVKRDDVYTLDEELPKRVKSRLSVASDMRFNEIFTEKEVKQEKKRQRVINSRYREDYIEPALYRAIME
# Assay: qHTS Assay for Inhibitors of JMJD2A-Tudor Domain; note: nearly all actives have a fitted effect of over 50% in size
# Settings: AlphaScreen JMJD2A-Tudor / H3K4me3 peptide binding; series mostly up to 114 µM
# Potency is the fitted concentration of half-maximal effect; tags give direction and shape of the fitted curve.
row,Structure (SMILES),Potency
1,CCC(C)n1c(O)c(/C=N/Nc2ccccc2)c(=O)[nH]c1=S (centres undefined),"inconclusive: 50.1 µM [inhibitor, partial curve]"
2,CCOC(=O)c1ccc(-n2c(N)c(C(=O)NCC3CCCO3)sc2=S)cc1 (centres undefined),"inconclusive: 100 µM [inhibitor, single point]"
3,COc1ccc(CCNC(=O)c2ccc3c(c2)N=C(C)c2cc(C)ccc2S3)cc1OC,"inconclusive: 14.1 µM [inhibitor, partial curve]"
4,O=C(N/N=C1/CN2CCC1CC2)c1cccc(O)c1,active: 44.7 µM
5,O=C(O)C(Br)CBr (centres undefined),"inconclusive: 89.1 µM [inhibitor, single point]"
6,Cc1cc(C)c(-n2c(O)c(/C=N/NC(=O)c3ccncc3)c(=O)[nH]c2=O)c(C)c1,"inconclusive: 100 µM [inhibitor, single point]"
7,COc1ccccc1CC(=O)Nc1ccc2c(c1)OC1(CCCC1)O2,"inconclusive: 25.1 µM [inhibitor, full curve]"
8,CCOc1cccc(OCCOCCN2CCCC2)c1,active: 7.94 µM
9,O=C(CSc1ccc(Cl)cc1)NC1=NN(c2ccccc2)C(=O)C1,"inconclusive: 44.7 µM [inhibitor, partial curve]"
10,CCN(CC)C(=O)c1ccc2c(c1)C1C(Cl)C(Sc3ccccc3[N+](=O)[O-])CC1C(C(=O)O)N2 (centres undefined),"inconclusive: 3.16 µM [inhibitor, partial curve]"
11,O=[N+]([O-])c1ccc(O)c([N+](=O)[O-])c1,"inconclusive: 89.1 µM [inhibitor, single point]"
12,Oc1ccc(C2NCc3ccccc3-n3cccc32)cc1Cl (centres undefined),"inconclusive: 56.2 µM [inhibitor, partial curve]"
13,CCOC(=O)c1c(/N=C/c2c(O)n(-c3cccc(C)c3)c(=O)[nH]c2=O)sc2c1CCCC2,inactive
14,CN1CC(C(=O)c2cccs2)C(c2ccc(Cl)cc2)C1 (centres undefined),inactive
15,CN(C)C(=O)OCc1n(C)cc[n+]1C,inactive
16,C=CCN1C(=O)/C(=C/c2ccc(Br)s2)C(=O)NC1=S,active: 44.7 µM
17,CCn1c(O)c(N=Nc2cccc(S(=O)(=O)N3CCOCC3)c2)c(=O)n(CC)c1=S,"inconclusive: 50.1 µM [inhibitor, partial curve]"
18,CNC(C(=O)c1ccccc1)C(OC)c1ccc(C)cc1 (centres undefined),inactive
19,CS(=O)(=O)N1CCN(C(=N)N[N+](=O)[O-])CC1,"inconclusive: 31.6 µM [inhibitor, partial curve]"
20,CC(C)C[C@@H](CN(N=O)[C@@H](Cc1ccccc1)CN(C)N=O)N(CCc1ccccc1)N=O,"inconclusive: 56.2 µM [inhibitor, partial curve]"
21,COc1ccc(N2CCN(CCc3ccncc3)CC2)cc1,inactive
22,COCCN1C(=NCCCOC(C)C)N[C@@H](c2ccccc2)C(C(=O)OC)=C1C,"inconclusive: 20 µM [inhibitor, partial curve]"

row,Structure (SMILES),Potency
1,Cc1ccc(-n2c(O)c(/C=N/NC(=O)c3ccncc3)c(=O)[nH]c2=O)cc1,"inconclusive: 100 µM [inhibitor, single point]"
2,COc1cc2cc(C(=O)N3CC(COS(C)(=O)=O)c4ccc(O)cc43)[nH]c2c(OC)c1OC (centres undefined),"inconclusive: 56.2 µM [inhibitor, partial curve]"
3,Clc1ccccc1CN1CCN(c2ccccc2Cl)CC1,active: 5.62 µM
4,COC(=O)C1=C(c2ccccc2OCc2ccccc2)C[C@@H]2CC[C@H]1N2C(=O)NCc1ccc(C(F)(F)F)cc1,"inconclusive: 35.5 µM [inhibitor, full curve, poor fit]"
5,Cc1ccc(/C=C2/C(=O)NC(=O)N(CC3CCCO3)C2=O)s1 (centres undefined),inactive
6,CN1CC(C(=O)c2ccc(Cl)cc2)C(c2ccc(N(C)C)cc2)C1 (centres undefined),active: 50.1 µM
7,Cc1ccc(C2=NCC(=O)Nc3ccc(Br)cc32)cc1,"inconclusive: 35.5 µM [inhibitor, partial curve]"
8,C/C(=N\N=C(N)N)c1ccccc1,"inconclusive: 28.2 µM [inhibitor, partial curve]"
9,COc1cc2c3c(c1OC)Oc1ccc(cc1)C[C@H]1c4c(cc(OC)c(OC)c4Oc4ccc(cc4)C[C@@H]3N(C)CC2)CCN1C,"inconclusive: 50.1 µM [inhibitor, partial curve]"
10,C/C(=N\NC(=O)c1ccccc1O)c1c(O)n(Cc2ccccc2)c(=O)[nH]c1=O,inactive
11,CCN(CC)P(c1n(C)cc[n+]1C)N(CC)CC,active: 22.4 µM
12,CCC(C)C1N=C(c2ccccc2)c2cc(Cl)ccc2N(CC(=O)NCc2ccco2)C1=O (centres undefined),inactive
13,c1ccc(CNCCc2ccc3c(c2)OCO3)nc1,"inconclusive: 5.62 µM [inhibitor, partial curve, poor fit]"
14,COc1cc(CN2CCNCC2)cc(OC)c1OC,inactive
15,ClCCN1CCN(c2ccnc3cc(Cl)ccc23)CC1,"inconclusive: 50.1 µM [inhibitor, partial curve]"
16,Cc1ccc(-n2c(O)c(/C=N/NC(=O)c3ccncc3)c(=O)[nH]c2=O)cc1C,active: 56.2 µM
17,Oc1ccc2c3c1O[C@H]1c4[nH]c5ccccc5c4C[C@@]4(O)[C@@H](C2)N(CC2CC2)CC[C@]314,"inconclusive: 89.1 µM [inhibitor, single point]"
18,Cc1cc([P+](=O)O)c(C)n1-c1ccc(Br)cc1,"inconclusive: 100 µM [inhibitor, single point]"
19,Cn1cc[n+](C)c1P(=S)(c1ccccc1)c1ccccc1,"inconclusive: 39.8 µM [inhibitor, partial curve]"
20,Cc1cc(/C=C2\C(=O)NC(=O)N(c3ccc(Cl)cc3)C2=O)c(C)n1-c1cccc(C(=O)O)c1,"inconclusive: 56.2 µM [inhibitor, partial curve]"
21,O=[N+]([O-])c1ccc(CN2CC=C(c3ccccc3)CC2)cc1,"inconclusive: 56.2 µM [inhibitor, partial curve]"
22,COc1ccc(-n2c(=S)[nH]c3c(sc(=S)n3-c3ccccc3)c2=O)c(OC)c1,"inconclusive: 50.1 µM [inhibitor, partial curve, poor fit]"
